PubChem BioAssay AID624296 (National Center for Advancing Translational Sciences (NCATS), 2012)
The campaign covered roughly 350,000 compounds. About 9,900 (2.8%) were called active. Inconclusive results, whose numbers are uncertain, are shown with a selection of clear calls. The call rests on the fitted dose curve; in most records, active means well fitted activation curve with a large enough effect; inconclusive means small, poorly fitted or top-dose-only effect; inactive means no such curve, though single readings can be large or run the other way. No potency is given beside an inconclusive call; the fits are too rough.

Experiment: A quantitative high throughput screen for small molecules that induce DNA re-replication in MCF 10a normal breast cells. Further: nearly all actives have a fitted effect of over 50% in size.
Conditions: MCF 10A DNA re-replication, Hoechst nuclear intensity, 48 h; series mostly up to 46.1 µM
Potency means the concentration at half of the fitted maximal effect; tags describe the fitted curve by direction and shape.

Structure (SMILES)	Potency
CCn1c(-c2cc(-c3ccc(C)cc3)nc3ccccc23)n[nH]c1=S	inactive
CCC(=O)N1CCc2cc(S(=O)(=O)CCC(=O)NCc3ccco3)ccc21	active: 8.2 µM
CCn1c(=N)c(S(=O)(=O)c2ccccc2)cc2c(=O)n3ccccc3nc21	active: 6.51 µM
CC(C)C(OC(=O)c1nsc(Cl)c1Cl)C(=O)NCc1ccccc1 (centres undefined)	inactive
O=C(CCC1CCCCC1)Nc1ccccc1C(=O)N1CCOCC1	inconclusive [activator, partial curve, poor fit]
O=S(=O)(c1ccc(-c2ccccc2)cc1)N1CCCC1	inconclusive [activator, full curve, poor fit]
O=C(Nc1ccc(N2CCOCC2)c(Cl)c1)c1ccc(F)cc1	inconclusive [activator, single point]
CC(OC(=O)c1cccs1)C(=O)NC1CCCCC1C (centres undefined)	inconclusive [activator, single point]
Cc1ccccc1OCc1nnc(SCC(=O)O)n1-c1cccc(Cl)c1	inconclusive [activator, single point]
CCc1noc(C)c1C(=O)Nc1nc(-c2cc(C)ccc2C)c(C)s1	inconclusive [activator, partial curve, poor fit]
O=C(NC(C(=O)O)c1ccccc1)c1ccc(S(=O)(=O)N2CCOCC2)cc1 (centres undefined)	inactive
O=S(=O)(Nc1nc2ccccc2nc1Cl)c1ccc2c(c1)OCCO2	inactive
CCN(CC)S(=O)(=O)c1ccc2oc(C(=O)NC3CCCc4ccccc43)c(C)c2c1 (centres undefined)	inconclusive [activator, single point]
CCN1CCN(c2ccc(S(=O)(=O)N3CCCCC3)cc2NC(=O)c2cccc(C(F)(F)F)c2)CC1	inconclusive [activator, partial curve, poor fit]
CCOC(=O)c1csc(NC(=O)c2cc3ccccc3o2)n1	inactive
COc1ccc(Cc2nc3ccc(C(=O)N4CCC(N(C)C)C4)cc3o2)cc1 (centres undefined)	inconclusive [activator, partial curve, poor fit]
COc1ccc(-c2cc(C(=O)Nc3ccc(S(=O)(=O)Nc4onc(C)c4C)cc3)c3ccccc3n2)cc1	inconclusive [activator, partial curve, poor fit]
CCOC(=O)c1cc(-c2ccccc2)sc1NC(=O)CC(C)C	inconclusive [activator, full curve, poor fit]
CCC(C)NC(=O)c1c(N)n(/N=C/c2ccccn2)c2nc3ccccc3nc12 (centres undefined)	inconclusive [activator, single point]
